Source: PubChem BioAssay AID493208 (National Center for Advancing Translational Sciences (NCATS), 2011)
The campaign covered roughly 44,000 compounds. About 340 (0.77%) were called active. About 5% were inconclusive and are not listed. Calls come from the whole dose curve; as a rule, active = well fitted inhibition curve with a large enough effect; inconclusive = small, poorly fitted or top-dose-only effect; inactive = flat fitted curve, though single readings scatter. This is one part of the list.

Experiment: Acumen qHTS Assay for Inhibitors of the mTORC1 Signaling Pathway in MEF (Tsc2-/-, p53-/-) Cells: Sytravon;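 note: plate controls were DMSO for no effect and rapamycin for full effect; nearly all actives have a fitted effect of over 50% in size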
Settings: phospho-rpS6 immunofluorescence/PI, 24 h; series mostly up to 38.3 µM; activity change, negative = inhibition: at the top concentration
Method in brief: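 Readout is phospho-S6 Alexa 488 signal normalized to PI per well, reported as % active cells with thresholds set from rapamycin (7.5 nM) and DMSO controls. Cells: Tsc2-/-, p53-/- MEFs, 24 hrs compound at 37 C; PI cell number serves as viability.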

Activity change, negative = inhibition, inactive:
COc1ccc(CNC(=O)CSc2ncc3c(n2)-c2cc(Cl)ccc2N(C)S3(=O)=O)cc1 -9.65%
CC(C)c1cnc2c(c1SCC(=O)Nc1ccc(C(N)=O)cc1)c(=O)n(C)c(=O)n2C 0.236%
CCOC(=O)Cn1c(-c2cccs2)cc2cc(Cl)ccc21 -1.29%
Cc1ccc(NC(=O)Nc2cccs2)c(C)c1 0.0781%
CCOC(=O)c1cc(OC(=O)c2ccccc2OC)n(-c2ccccc2)n1 -1.14%
COc1ccc(N(C(=O)c2cccc(C)c2)S(=O)(=O)c2ccc3c(c2)n(C)c(=O)n3C)cc1 -3.56%
CN(CCCNC(=O)c1cc2c(=O)n(C)c3ccccc3c2s1)Cc1ccccc1 -0.708%
O=C(Cn1c(=O)n(-c2ccccc2)c(=O)c2ccc(C(=O)NCc3ccc4c(c3)OCO4)cc21)Nc1ccc(F)c(Cl)c1 -2.57%
COc1ccc(CCNC(=O)c2ccc3c(c2)N(Cc2cccc(Cl)c2)C(=O)c2ccccc2S3=O)cc1OC (stereo unspecified) -0.818%
O=C(c1ccccc1Br)N(Cc1ccccc1F)C1CCS(=O)(=O)C1 (stereo unspecified) -5.81%
CCC(C)NC(=O)CSCc1nc(-c2ccc(C)cc2)oc1C (stereo unspecified) 2.66%
CN1CCN(C(=O)c2ccc3c(c2)N(Cc2ccc(Cl)cc2)C(=O)c2ccccc2S3(=O)=O)CC1 -2.21%
Cc1cccc(CC(=O)NCCc2sc3nc(-c4ccc(F)cc4)nn3c2C)c1 -2.13%
COc1ccc(OCC(=O)N(Cc2ccc(C)o2)C2CCS(=O)(=O)C2)cc1 (stereo unspecified) 2.19%
CCOc1ccc(CCNC(=O)c2ccc(-c3nc(CSc4ccccc4)c(C)o3)cc2)cc1 0.393%
CCc1ccc(N(CC)C(=O)c2sc3nc4n(c(=O)c3c2C)CCCC4)cc1 3.76%
COc1ccccc1NC(=O)CN1C(=O)CCSc2ccccc21 -12%
O=C(Cn1c(=O)ccc2cc(S(=O)(=O)N3CCCC3)ccc21)Nc1ccc(Cl)cc1 -16.9%
Cc1ccc(Cl)cc1NC(=O)CSCc1cnn(-c2ccccc2)c1-n1cccc1 -10%
CCN(C(=O)c1cn(C)c(=O)c2ccccc12)c1cccc(C)c1 -11.6%
Cc1cccc(NS(=O)(=O)c2ccc3c(c2)CCN3C(=O)C2CC2)c1C 0.371%
CCOc1ccc(N(CC(=O)Nc2ccccc2CC)S(=O)(=O)c2c(C)noc2C)cc1 1.3%
COc1ccc(C(=O)NNc2ncnc3c2cnn3-c2ccc(C)c(Cl)c2)cc1 5%
COc1ccc(NC(=O)c2c(NC(=O)c3ccncc3)sc3c2CCC(C(C)(C)C)C3)cc1 (stereo unspecified) -11.7%
COc1cccc(Cn2c(=O)n(CCc3ccccc3)c(=O)c3c2c2cc(OC)ccc2n3C)c1 -4.57%
Cc1ccc(Cl)cc1NC(=O)C1CCN(S(=O)(=O)c2cccc3nonc23)CC1 2.51%
